# In publication PMC4336329 (PLoS ONE, 2015):
# The campaign covered roughly 310,000 compounds. About 2,200 (0.71%) showed an effect of 50% or more. Effects have a minus sign here. Some of the results follow.
# Biological target: human ether-à-go-go-related gene (hERG) potassium channel (human, UniProt Q12809)
# Assay: primary screen, population patch clamp on CHO cells stably expressing hERG
# Experimental: Briefly, Chinese hamster ovary (CHO) cells stably expressing the hERG channel were dislodged from tissue culture flasks and dispensed into PPC plates. […] During the recording, background leak currents were estimated by a 100 ms step to -80 mV from an initial holding potential of -70 mV and subtracted from the subsequent current measurement. The campaign was conducted in two phases using slight differences in recording protocol. In the first phase, the initial voltage pulse used a 100 ms step to -30 mV from a holding potential of -70 mV, a 2 s conditioning step to +25 mV, and a 2 s test step to -30 mV. During the second phase of the screen, the potential during the conditioning step was raised to +45 mV. In both phases of the campaign, a secondary voltage pulse was applied using the same parameters as the second phase initial pulse. The initial and secondary pulses were applied in the absence of compound, and upon application of 1 μM and 10 μM test concentrations. Small molecule effects on hERG current density were quantified by […].
# Sequence of human ether-à-go-go-related gene (hERG) potassium channel (Q12809 whole entry, looked up): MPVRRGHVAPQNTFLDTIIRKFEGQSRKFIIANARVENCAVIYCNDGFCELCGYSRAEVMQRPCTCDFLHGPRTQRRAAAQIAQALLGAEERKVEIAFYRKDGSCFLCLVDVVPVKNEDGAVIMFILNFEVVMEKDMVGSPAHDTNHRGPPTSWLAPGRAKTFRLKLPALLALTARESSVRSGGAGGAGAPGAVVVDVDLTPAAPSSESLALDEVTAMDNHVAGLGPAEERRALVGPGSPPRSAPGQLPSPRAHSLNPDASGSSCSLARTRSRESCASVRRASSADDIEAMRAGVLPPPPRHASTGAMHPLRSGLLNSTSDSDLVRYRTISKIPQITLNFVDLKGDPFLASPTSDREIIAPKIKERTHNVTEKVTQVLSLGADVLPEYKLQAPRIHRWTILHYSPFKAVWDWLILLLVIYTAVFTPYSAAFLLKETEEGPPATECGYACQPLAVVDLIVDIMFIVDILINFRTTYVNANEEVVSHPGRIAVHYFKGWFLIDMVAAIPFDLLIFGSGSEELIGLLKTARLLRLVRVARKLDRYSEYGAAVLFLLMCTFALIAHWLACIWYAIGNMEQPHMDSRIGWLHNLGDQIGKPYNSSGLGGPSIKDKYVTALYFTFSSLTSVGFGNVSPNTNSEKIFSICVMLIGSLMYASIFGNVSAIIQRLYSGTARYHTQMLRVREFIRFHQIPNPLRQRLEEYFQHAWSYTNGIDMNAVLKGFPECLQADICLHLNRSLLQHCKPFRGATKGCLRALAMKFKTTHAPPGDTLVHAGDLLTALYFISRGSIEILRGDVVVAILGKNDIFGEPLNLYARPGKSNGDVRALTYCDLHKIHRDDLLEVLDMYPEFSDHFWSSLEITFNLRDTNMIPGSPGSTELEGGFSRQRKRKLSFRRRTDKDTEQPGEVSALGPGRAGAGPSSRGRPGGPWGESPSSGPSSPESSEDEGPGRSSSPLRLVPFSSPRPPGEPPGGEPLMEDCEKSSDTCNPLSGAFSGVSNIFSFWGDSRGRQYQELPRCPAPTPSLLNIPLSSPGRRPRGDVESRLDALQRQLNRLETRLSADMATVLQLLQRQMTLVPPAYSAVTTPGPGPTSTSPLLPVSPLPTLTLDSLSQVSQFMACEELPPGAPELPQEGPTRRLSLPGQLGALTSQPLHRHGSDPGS
row,SMILES,"hERG current change (%, negative = inhibition) at 1uM [%]"
1,CC(C)C12CN3CC(C(C)C)(CN(C1)C3c1cccnc1)C2=O (stereo not shown),7.09
2,CCC(C)(C(=O)NC1CCCCC1)N(C(=O)c1ccccn1)c1ccc(C)cc1 (stereo not shown),8.52
3,CCCc1ccc(NS(=O)(=O)c2c(C)oc(C)c2C(=O)OC)cc1,9.92
4,O=C(C1CCCN(Cc2ccccc2F)C1)N1CCc2ccccc2C1.O=C(O)C(=O)O (stereo not shown),9.16
5,COc1ccc2cc(S(=O)(=O)NCc3cccnc3)ccc2c1,7.92
6,CCC(=O)Nc1ccc(NC(=S)NC(=O)c2cc3ccccc3o2)cc1,4.98
7,C/C(=N/NC(=O)Nc1ccccc1)c1ccc(C)cc1,3.84
8,CCOc1ccccc1NC(=O)CSc1nc2cccnc2n1C,5.84
9,COc1cc(C)nc(-n2nc(C)cc2OC)n1,13.5
10,Cn1nc(C(F)(F)F)c2cc(C(=O)N3CCOCC3)sc21,5.87
11,OC(COc1cccc(OCC(O)CN2CCCC2)c1)CN1CCCC1 (stereo not shown),4.76
12,c1ccc(Oc2cccc(OCCn3cncn3)c2)cc1,-3.65
13,COc1ccc(NS(=O)(=O)c2cc(NC(=O)CCNC(C)=O)ccc2N2CCOCC2)cc1,11.5
14,CO/N=C(/CS(=O)Cc1ccccc1Cl)c1ccc(Cl)cc1Cl (stereo not shown),8.12
15,CCc1ccc(/C=C2\SC(N3CCCC3)=NC2=O)cc1,-4.96
16,COCCN1CCN(C(=O)C2CCC(=O)N(Cc3ccc(Cl)cc3)C2)CC1 (stereo not shown),10.1
17,CC(C)(C)c1cc(OC(=O)c2ccccc2F)ccc1O,11.5
18,CCn1cc(CNCc2c(C(=O)N3CCCCC3)nc3c(C)cccn23)cn1,5.99
19,Fc1ccc(Nc2ccnc(C(F)(F)F)c2)cc1,15.5
20,Cc1ccc(NS(=O)(=O)c2ccc(Br)cc2)nc1,12.9
21,CC(C)(C)c1cc(C(=O)NC2CC2)n(Cc2ccc(F)cc2)n1,8.75
22,CCOC(=O)Cn1nnnc1CN(Cc1cccs1)Cc1cc2cc(C)cc(C)c2[nH]c1=O,-0.811
23,COc1cc2c(cc1OC)CN(C(=O)CN1CCN(S(=O)(=O)c3ccccc3Br)CC1)CC2,0.741
24,CN(C(=O)c1cccn(Cc2ccccc2)c1=O)c1ccccc1,11.2
25,COCCCNC(=O)/C(C#N)=C/c1cccc(NC(=O)c2ccccc2Cl)c1,13.9
